Where “and” joins values, the source holds several entries; their conditions need not be identical. Equal values may be shown once. The campaign covered roughly 420,000 compounds. About 50,000 (12%) were called active. The inconclusive results got no clear call from the source; some entries with a clear call stand among them for comparison. The call rests on the fitted dose curve; in most records, active means well fitted inhibition curve with a large enough effect; inconclusive means small, poorly fitted or top-dose-only effect; inactive means flat fitted curve, though single readings scatter. Where the call is inconclusive, the potency comes from a doubtful curve fit.
Test: qHTS for Inhibitors of human tyrosyl-DNA phosphodiesterase 1 (TDP1): qHTS in cells in presence of CPT; further: nearly all actives have a fitted effect of over 55% in size
Conditions: chicken DT40 Tdp1-/-;hTDP1 cells + 20 nM CPT, ATP luminescence, 48 h; activity change, negative = growth inhibition: at 46.2 µM (top of the series)
Outline: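 Chicken DT40 Tdp1-/- cells stably complemented with human TDP1 were seeded at 400 cells/well in medium containing 20 nM camptothecin, exposed to pin-transferred compounds, and grown at 37 °C for at least 48 hr. Viability was read as ATP luminescence.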
On the % scale 0 is the no-effect control and ±100 the full control effect; potency means the concentration at half of the fitted maximal effect; tags describe the fitted curve by direction and shape.

SMILES | activity change, negative = growth inhibition | Potency
COc1ccccc1NC(=O)CSc1nnc(COc2ccccc2C)o1 | inactive: 8.77% | –
N#CC1=C(N)Oc2cc(O)c(Cl)cc2C1c1cccnc1 (configuration not stated) | – | inconclusive: 6.51 µM [inhibitor, full curve, poor fit]
COc1ccc(OC)c(C2C(C#N)=C(N)Oc3c2c(C)nn3-c2ccc(C)cc2)c1 (configuration not stated) | inactive: -40.1% | –
Cc1ccccc1CNC(=O)C(=O)NCC(c1cccs1)S(=O)(=O)c1ccc(Cl)cc1 (configuration not stated) | – | inconclusive: 29.1 µM [inhibitor, single point]
COc1ccc(-c2nc(NC(=O)C3CCN(c4nc5ccccc5o4)CC3)sc2C)cc1 | – | active: 16.4 µM
CC1CCCC(C)N1C(=O)COC(=O)C1CCN(S(=O)(=O)c2c(Cl)cccc2Cl)CC1 (configuration not stated) | inactive: -4.08% | –
COc1ccc(NC(=O)Nc2ccccc2OCc2cc(=O)n3ccccc3n2)c(OC)c1 | – | inconclusive: 18.4 µM [inhibitor, single point]
CCN(CC)CCOc1ccc2nc(N(C)C)sc2c1 | – | inactive and inconclusive: 3.76 µM [inhibitor, full curve]
CCCNC(=O)C1(C)CCCN(C(=O)c2ccc(F)cc2Cl)C1 (configuration not stated) | inactive: 1.4% | –
CCOC(=O)N1CCN(C(=O)CNC2CCCCCCC2)CC1 | inactive: 4.11% | –
CCN(CC)c1ccc(NC(=O)CN2C(=O)c3cccnc3Sc3ccccc32)c(C)c1 | – | active: 16.4 µM
NC(=O)CSc1nnc2ccc(-c3ccc(F)cc3)nn12 | – | inconclusive: 29.1 µM [inhibitor, single point]
CCCOc1ccc(Cc2c(Cl)nc(SC)nc2N(C)C)cc1 | – | inconclusive: 23.1 µM [inhibitor, single point]
CC(=O)N(c1nnc(-c2ccc(C)cc2)s1)C1CCCC1 | – | inconclusive: 4.11 µM [inhibitor, partial curve]
COC(=O)c1ccccc1NC(=O)Cn1c(=O)n(CCC(=O)NC2CCN(Cc3ccccc3)CC2)c(=O)c2ccccc21 | – | inconclusive: 29.1 µM [inhibitor, single point]
CCCCc1cc(=O)oc2cc(OCC(=O)NC(Cc3c[nH]c4ccc(O)cc34)C(=O)O)ccc12 (configuration not stated) | inactive: 9.53% | –
C[C@H](O)C(=O)Nc1c(I)c(C(=O)NC(CO)CO)c(I)c(C(=O)NC(CO)CO)c1I | inactive: 4.05% [at 21.1 µM] | –
COc1cc(C(=S)N2CCCC2)cc(OC)c1OS(=O)(=O)c1ccc(NC(C)=O)cc1 | – | inconclusive: 23.1 µM [inhibitor, single point]
COC(=O)CCN(C(=O)c1ccc(N2CCCC2)c([N+](=O)[O-])c1)c1ccccn1 | – | inconclusive: 25.9 µM [inhibitor, single point]
COC(=O)c1ccc(CNC(=O)COC(=O)c2ccc(N(C)C)cc2)cc1 | – | inconclusive: 23.1 µM [inhibitor, single point]
COC(=O)c1[nH]c2ccccc2c1NC(=O)CN1CCCc2ccccc21 | – | inconclusive: 18.4 µM [inhibitor, single point]
COCC(=O)N1CCC(Oc2ccc(C(=O)N3C[C@@H]4CCC[C@H]3C4)cc2)CC1 | inactive: 19.7% | –
O=C(CNC(=O)c1cccs1)c1ccc([N+](=O)[O-])cc1 | inactive: -24% | –
Cc1ccc(-c2cc(C(=O)N/N=C/C=C/c3ccccc3)n[nH]2)o1 | – | inconclusive: 20.6 µM [inhibitor, single point]

SMILES | activity change, negative = growth inhibition | Potency
CCCn1c(NC(=O)CCNC(=O)c2ccccc2Cl)nc2ccccc21 | – | inconclusive: 16.4 µM [inhibitor, single point]
CC(=O)N1c2ccc(S(=O)(=O)N3CCN(c4cccc(Cl)c4)CC3)cc2CC1C (configuration not stated) | – | inconclusive: 20.6 µM [inhibitor, single point]
COc1ccc(NC(=O)COC(=O)Cc2cccs2)cc1Cl | inactive: 15.6% | –
CCOc1cc(C2C(C(=O)OC)=C(C)NC3=C2C(=O)c2ccccc23)c(Br)cc1O (configuration not stated) | – | inconclusive: 16.4 µM [inhibitor, single point]
CCCn1cc2c(c1-c1cccc(C)c1)c(=O)n(C)c(=O)n2C | – | inconclusive: 20.6 µM [inhibitor, single point]
Cc1nnc(SCC(=O)Nc2ccc3c(c2)OCCO3)n1N | inactive: -1.94% | –
N#Cc1ccc2[nH]cc(CCO)c2c1 | inactive: 2.06% | –
S=c1[nH]cc(-c2ccccc2)n1-c1cccc(Cl)c1 | – | inconclusive: 23.1 µM [inhibitor, single point]
CC(Cc1c[nH]c2ccccc12)C(=O)NCc1ccco1 (configuration not stated) | inactive: -28% | –
O=c1c(=O)n(Cc2c(F)cccc2Cl)ccn1Cc1ccccc1 | inactive: -23.7% | –
Cc1cccc(NC(=O)c2nc[nH]c2C(=O)NCc2ccccc2)c1 | – | inconclusive: 29.1 µM [inhibitor, single point]
CC(=O)N1CCc2c(sc3c2c(=O)n(CCc2ccccc2)c(=O)n3Cc2cccc(C)c2)C1 | – | active: 14.6 µM
C=CCN(CC=C)S(=O)(=O)c1ccc(C(=O)Nc2nnc(COC)o2)cc1 | – | inconclusive: 29.1 µM [inhibitor, single point]
Cc1cccc(NS(=O)(=O)c2cc3c(cc2C)N(C)CCO3)c1 | inactive: -20.6% | –
CNC(=O)c1ccc2nc(NC(C)=O)sc2c1 | inconclusive: -35.4% [inhibitor] | –
Cc1nn(Cc2cccc(C(=O)N3CCCC(C)C3)c2)c(C)c1[N+](=O)[O-] (configuration not stated) | – | inconclusive: 29.1 µM [inhibitor, single point]
O=C(N/N=C/c1c[nH]c2ccccc12)c1cc(-c2ccc(-c3ccccc3)cc2)n[nH]1 | – | inconclusive: 29.1 µM [inhibitor, single point]
CC(C)(C)OC(=O)N(Cc1ccccc1)Cc1cccc(OCc2cccc(NC(=O)c3ccccc3)c2)c1 | – | active: 23.1 µM
COc1ccc(N2CCN(C3C(=O)c4ccccc4N3C(C)=O)CC2)cc1 (configuration not stated) | – | inconclusive: 23.1 µM [inhibitor, single point]
C[C@@](N)(C(=O)O)c1ccc(P(=O)(O)O)cc1 | inactive: 11.2% | –
O=c1cc(O)nc(SCc2ccccc2)n1-c1ccc(F)cc1 | inactive: -0.468% | –
Cc1c(Cl)cccc1NC(=O)CSC(C)c1nc2ccccc2c(=O)[nH]1 (configuration not stated) | inactive: -4.67% | –
CN(CC(=O)NCCc1ccc(Cl)cc1)S(=O)(=O)c1ccc2c(c1)c(=O)n(C)c(=O)n2C | inconclusive: -38.4% [inhibitor] | –

— PubChem BioAssay AID686979 (National Center for Advancing Translational Sciences (NCATS), 2013)
